Data published in publication PMC10726135.
This is one part of the list. At the low end of the ranking the order means little. The protein was read in a cell extract, so binding may be indirect.

Molecular target: T1, HNF4alpha2 (COS-7 nuclear extract) (UniProt P41235)
T1 sequence: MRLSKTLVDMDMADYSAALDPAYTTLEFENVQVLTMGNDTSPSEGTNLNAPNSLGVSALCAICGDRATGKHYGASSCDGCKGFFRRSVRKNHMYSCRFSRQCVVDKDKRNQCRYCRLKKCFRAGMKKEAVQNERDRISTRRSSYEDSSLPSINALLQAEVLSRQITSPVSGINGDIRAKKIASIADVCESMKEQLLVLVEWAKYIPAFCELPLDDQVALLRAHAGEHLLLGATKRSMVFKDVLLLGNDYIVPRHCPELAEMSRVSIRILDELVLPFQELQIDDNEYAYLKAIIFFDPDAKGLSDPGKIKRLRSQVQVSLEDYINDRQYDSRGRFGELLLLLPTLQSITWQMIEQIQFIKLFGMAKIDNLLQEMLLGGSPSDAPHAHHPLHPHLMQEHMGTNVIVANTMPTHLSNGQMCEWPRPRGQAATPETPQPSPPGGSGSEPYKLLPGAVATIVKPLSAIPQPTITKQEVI
Experiment: protein-binding microarray
Conditions: COS-7 nuclear extract on double-stranded Agilent 4x180k PBM; binding buffer, salt, pH and temperature not given; high values mean tight binding; double strand, one strand shown; sequences stand for … in …GCCTAGGGAGATTAGAGTATCGGTCGA

Row | Sequence | binding signal (log2 normalized intensity)
1 | CCTTGCATCAGAATCTGGACAGTGTAAGAT | 1.03
2 | TATAGTCACTATACAACTAGGCTACATGAT | -1.13
3 | CTGCAGGGTAGGCAGACAGGTTGGAGACGC | -0.955
4 | AGGAGAAGAATGAAAGCCAAGGCAGATATG | -1.11
5 | GCTCTTTAGGAATGCAACTCTAACCTTTAC | 2.93
6 | GGAAATAATGCGACTTGCCTTGTGTACTCT | 1.82
7 | CTCCCGGGGAGGTCAACCAGGGAAATTACC | -1.19
8 | CAGGTAGAGAGCAATCATGCACCTGCGGAT | -1.25
9 | CTGGGGAGACTCTCTCTCCTCTCCAGCCCA | 0.968
10 | GCAAAGGTGAGGGGAGCGTAAAACCACTGG | -1.12
11 | TTTTATGTGCTCCATCAGTGGTAAACAGAA | 0.695
12 | GTAGTTGCAAATATTGCAGTGTAGATTAAA | 0.397
13 | TAAAATGAGACTTCCCAGCTGCTGGTCAAA | -0.13
14 | TATGGCTTATACTTGAGGTATGATGCATCC | 1.53
15 | CAATTGGGAATGTCACAGGGGCCATGCAGG | -1.02
16 | TGCAAATATTGCAGTGTAGATTAAATCCTC | -0.842
17 | ACACTTAGAAAATGCCCTCAATCAAAGTGA | -0.98
18 | GCTGACATGCTCTTGGAATGTTGAACCTTT | 4.24
19 | TGATCAGAAAAGAAAGTGAGGAATGCAACC | -1.05
20 | GGGTGGGCCTGGGGGGAGACAACTGCAACA | -1.23
21 | ACAGGGCTTGGGGTGGGGTTGGAGTCCAGA | 1.25
22 | CTGACACTGTCCCAGCTGAGATTCAGAATA | -1.23
23 | TGTGTGCACAAGAGGGTGGGAGTTCAGGGG | -1.22
24 | AGTTCCCAGCCCTTCACCAGAGCCGTCTGG | -0.946

Row | Sequence | binding signal (log2 normalized intensity)
25 | TTCATCCCCACCCCCACTGCCTGACCCCAA | 7.59
26 | TCCCAATTTATCTTTCCAGATTGTTCTATT | -0.0836
27 | AATGCCTAAACCAGGATCCAGTCCTCACCC | -1.16
28 | AATTAAGGAAGATGGTGCAAGTGGCTATGG | 0.889
29 | GAAAAGTAATGAAAGGAAATCATTCCAGAA | -0.446
30 | CTTTAATAGGCTGGGATGATTTCAGCTTAT | -0.952
31 | TCGCCTAGGCCTTTCCTGGGCCTTAAAGCA | -1.18
32 | TCTCTGGTCAAAGGGTAAAGATTATGAACT | 2.44
33 | ACAACAGCCTTGCAGATAAGCCACGAGCCT | -1.06
34 | TATTCATTCAACTTTGACTTCCATTGTGTT | 1.84
35 | TCATCTGAGTAGTGTACGTTGTACCCCACA | 3.56
36 | ACATTGTAACCACCTCTCTGGGTGGTTCGA | 0.003
37 | GAAAACAAATAGAGCAGACTATTATCAGCC | -1.24
38 | CCTAAGTCTGCCGTTTTCTTATTCTGTCAC | 1.89
39 | CTCCATGCTGTAGATTGTGGAATGTCTTCT | 1.58
40 | TTGGGACCTGAGAACAAACAATGGTTTGGG | 0.202
41 | AAACTCTCAAGCTCTCCTCTTATCAGGCAG | -1.07
42 | AGTGTAAAGAGCTTTTGGGCAGAGACTATG | -0.797
43 | TCAGACTGAGGATGGGCCAAGGTTCAGAGA | 1.14
44 | AACTGAGTATTTAGCTTCCTCCCTTGGAAT | -0.853
45 | CTATGGACCTGCAAACAGCACTCTCTGATT | -1.03
46 | TCGGCGCTCCGCTTACTCGGCCTGGACCCC | 3.29
47 | AGAGGCCTTATCTGGCCGCCTAATCCCCTG | 1.27
48 | TGCCCTCACAGGTTCCAGCATGGACTTCAC | 2.31

Row | Sequence | binding signal (log2 normalized intensity)
49 | TTGACCCTGCGATAAGTAGATACCAAATAG | 0.44
50 | AGGCCGTTCTAGCCCTTTTTCCGGCTGAAT | -1.16
51 | TCTCCTGGAATGCAAGACCTCAGCCCTCAG | -1.15
52 | CGCCGGAACTGGTCCGGCCCGACTCACGAC | -1.12
53 | GACAGCCAGCTGGTAAATAAAGGAACTTAC | -1.2
54 | GCCTCGGGCCTGCGAGGTTACAGGGTTCAA | 2.18
55 | GATCCTCACAGTGCCTCTGCAAGTTGGCCT | 1.4
56 | CTGAGATTCAGAATAGTTAAGTAACGTGTC | 1.17
57 | CACGCCTCAAATGAGCTTTTGATGAGCCTA | -1.16
58 | AGATTAGATTGCTCAGAGGCACAGTCTGCT | -1.18
59 | TCATTTGGCTTCCGTGCCTGCATGGGCTGT | -0.209
60 | AATGGGCAAAGGTCACAAGAGGTGCTGTGT | 4.69
61 | GGTCAGCTCATTCCCTAGGGCTCGGCATTC | -1.14
62 | GACTCTGAGACCTGTGATGGTCACTATCTG | 0.304
63 | CTTGCAGGTGTCAGGGGTCAATGTGCACAT | 5.04
64 | TTTCCCTCTGTGCCCGAGCTGTCTTATCTG | 0.962
65 | CCTCCTGAGATAGGTATGATAACCCCCGTC | 4.01
66 | CTGGTGTTTCCCTGTTTGCTTCTGCCCCCT | 5.16
67 | GGGTCAACAGACAAATGAAAGAGCTCAAAT | -0.882
68 | AGGCAGCCTCAGCCACACGCCCATCTCCAC | -1.18
69 | CTGGTTACTAAACACTTACACCTGGGTGCT | -0.949
70 | TTTAAACATTCCCACCTAAGACATAAATAT | 1.46
71 | TATCTTCCAGCCCTGTCTCTCAGGTGTAAC | 1.35
72 | TTGTCAGTGCCCTATACAGACCTTTGTATA | 2.96
